Test results from publication PMC13083723 (Patterns, 2026).
Hit rate of the full screen: of about 5,400 compounds, about 190 (3.5%) showed an effect of 50% or more. This is one part of the list.

Tested on: Vero-E6
Experiment: primary screen, phospholipidosis by LipidTOX staining; higher = more effect of the substance
Details: 10 µM
Procedure, shortened: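 Drug-induced phospholipidosis detected with HCS LipidTOX Red reagent in Vero-E6 cells. Compounds tested at 10 μM, with amiodarone (10 μM) as positive control and DMSO (0.1 v/v %) as vehicle.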

Compound | result_ITMP [%]
CC(C)=CCC/C(C)=C/CC/C(C)=C/CC[C@]1(C)CCc2cc(O)cc(C)c2O1 | -0.24
CCCNCCc1ccc(NS(=O)(=O)c2ccc(OC(F)(F)F)cc2)cc1 | 33
CN1C(=O)N(C)C2C1N(C)C(=O)N2C (centres unmarked) | -9.95
CN(Cc1cc(Br)cc(Br)c1N)C1CCCCC1 | -3.05
C[C@H](CS)C(=O)N1CCC[C@H]1C(=O)O | -0.88
CCOC(=O)c1c2c3c(cccc3[nH]c1=O)C(=O)c1ccccc1-2 | -1.87
CC(C)n1nccc1-c1ncccc1COc1cccc(O)c1C=O | 0.56
CC1(C)O[C@@H]2C[C@H]3[C@@H]4C[C@H](F)C5=CC(=O)C=C[C@]5(C)[C@H]4[C@@H](O)C[C@]3(C)[C@]2(C(=O)CO)O1 | -2.41
CC[C@H]1CN2CCc3cc(OC)c(OC)cc3C2C[C@@H]1CC1NCCc2cc(OC)c(OC)cc21 (some centres unmarked) | 7.6
NCCc1ccc(O)c(O)c1 | -2.47
Nc1nc(=O)c2c([nH]1)NC[C@H](CNc1ccc(C(=O)N[C@@H](CCC(=O)[O-])C(=O)[O-])cc1)N2C=O | -7.53
O=C(/C=C/c1cccnc1)NCCCCC1CCN(C(=O)c2ccccc2)CC1 | 1.91
COc1ccccc1CN[C@H]1CCCN[C@H]1c1ccccc1 | 18.8
CC(C)C[C@H](NC(=O)OCC1c2ccccc2-c2ccccc21)C(=O)O | -1.06
O=C(CSc1nc2c(c(=O)n1-c1ccccc1)SCC2)Nc1ccc(-c2ccccc2)cn1 | 3.58
CC(C)NC[C@@H](O)COc1cccc2ccccc12 [R4A_0000150_002 / SPE_K13994703] | 20.2
COC(=O)c1cc(OC)c2c(c1-c1c(C(=O)OC)cc(OC)c3c1OCO3)OCO2 | -5.43
CCNC1(C(N)=O)CCN(c2ncnc3c2nc(-c2ccccc2Cl)n3-c2ccc(Cl)cc2)CC1 | 24.7
COc1ccc(C2Sc3ccccc3N(CCN(C)C)C(=O)C2OC(C)=O)cc1 (centres unmarked) | -2.48
O=C(Nc1ccccc1)C12CC1/C(=N\O)c1ccccc1O2 (centres unmarked) | -1.82
CC(=O)Oc1ccc(C(c2ccc(OC(C)=O)cc2)c2ccccn2)cc1 | -5.23
CCOC(=O)CC(=O)N1CCSC1COc1ccccc1OC (centres unmarked) | 2.87
N[C@@H](CC(=O)N1CCn2c(nnc2C(F)(F)F)C1)Cc1n[nH]c2c(F)c(F)ccc12 | -2.29

Compound | result_ITMP [%]
C[N+]1(C)C2CCC1CC(OC(=O)C(CO)c1ccccc1)C2 (centres unmarked) | 8
O=[N+]([O-])c1ccc(O)c2ncccc12 | 26
N#CC[C@H](C1CCCC1)n1cc(-c2ncnc3[nH]ccc23)cn1 | -4.27
CS/C(N)=C(C#N)/C(C#N)=C(\N)SC | -2.12
CCCc1nn(C)c2c(=O)[nH]c(-c3cc(S(=O)(=O)N4CCN(C)CC4)ccc3OCC)nc12 | 1.5
C[N+](C)(C)CC(=O)[O-] | -1.21
CCCCOC(=O)c1cc2c(cn1)[nH]c1ccccc12 | -1.41
COc1cc(NC(=O)Nc2cccc(CNC(=O)O[C@H]3CCOC3)c2)ccc1-c1cnco1 | 0.33
CN(C[C@@H]1COCCO1)S(=O)(=O)Nc1ccc2ccc3ncc(-c4cnn(C)c4)cc3c(=O)c2c1 | 8.06
Cc1c(C(=O)N2CCOc3ccc(-c4ccc(N)nc4)cc3C2)ccc(S(C)(=O)=O)c1F | 3.13
c1ccc2c(c1)Nc1ccccc1S2 | -3.65
CCCNC(C)(C)COC(=O)c1ccccc1 | 0.66
N=C(NCCC[C@H](N)C(=O)O)N[N+](=O)[O-] | 1.32
Nc1nc(=O)c2c(CCc3ccc(C(=O)N[C@@H](CCC(=O)[O-])C(=O)[O-])cc3)c[nH]c2[nH]1 | -3.84
CSc1nc(N)cc(Oc2ccc(-c3nnc(Nc4cccc(C(F)(F)F)c4)[nH]3)cc2)n1 | -0.92
NC(Cc1ccc(Cl)cc1)C(=O)O (racemic) | -7.04
CC(NCCc1ccc(O)cc1)C(O)c1ccc(O)cc1 (centres unmarked) | -3.41
CCC1(C)CC(=O)NC1=O (centres unmarked) | -6.19
CC(=O)Nc1ccc(OC(C)=O)cc1 | -3.07
NC1CCN(c2c(F)cc3c(=O)c(C(=O)O)cn(C4CC4)c3c2Cl)C1 (centres unmarked) | -1.64
CC(C)(O)CC(=O)NCCn1ccc2ncnc(Nc3ccc(Oc4cccc(C(F)(F)F)c4)c(Cl)c3)c21 | 19
O[C@H]1[C@H]2[C@H](O)CCCN2C[C@H]1O | 0.57
Cc1ccc(/N=C/N(C)/C=N/c2ccc(C)cc2C)c(C)c1 | 1.63

Compound | result_ITMP [%]
COc1ccn2ncc(-c3nc4[nH]nc(NC(=O)c5ccc(F)cc5)c4cc3F)c2c1 | -4.3
CC(C)c1cnn2c(NCc3ccccc3)cc(NCCCCCCN)nc12 | 53.6
CC[C@]1(O)C[C@H]2C[N@](CCc3c([nH]c4ccccc34)[C@@](C(=O)OC)(c3cc4c(cc3OC)N(C)[C@H]3[C@@](O)(C(N)=O)[C@H](O)[C@]5(CC)C=CCN6CC[C@]43[C@@H]65)C2)C1 | 9.74
CCCN(CCC)C1Cc2cc(OC)c(OC)cc2C1 | -1.54
CCc1nn(CCCN2CCN(c3cccc(Cl)c3)CC2)c(=O)n1CCOc1ccccc1 | 6.52
O=S(=O)(c1cccc2cnccc12)N1CCCNCC1 | 0.23
O=C(c1ccc(F)c(F)c1Nc1ccc(I)cc1F)N1CC(O)([C@@H]2CCCCN2)C1 | 78.8
O=c1c2ccccc2[se]n1-c1ccccc1 | -2.68
COc1ncc(-c2ccc3c(Nc4cc(Oc5cc(F)cc(F)c5)cc(C(=O)O)c4)c(S(=O)(=O)NC4CC4)cnc3c2)c(OC)n1 | -9.8
OCCN1CCN(CC/C=C2/c3ccccc3Sc3ccc(Cl)cc32)CC1 | 17.9
CN1c2ccccc2C(=O)N2CCc3c([nH]c4ccccc34)C21 (centres unmarked) | 8.12
CC[C@H]1[C@@H](O)[C@@H]2[C@H](CC[C@]3(C)[C@@H]([C@H](C)CCOS(=O)(=O)[O-])CC[C@@H]23)[C@@]2(C)CC[C@@H](O)C[C@@H]12 | -1.93
NCCCS(=O)(=O)O | -2
Nc1nc(/C(=C/CC(=O)O)C(=O)N[C@@H]2C(=O)N3C(C(=O)O)=CCS[C@H]23)cs1 | -2.36
CCCC[C@H](NC(=O)[C@@H]1[C@@H]2[C@H](CN1C(=O)[C@@H](NC(=O)NC1(CS(=O)(=O)C(C)(C)C)CCCCC1)C(C)(C)C)C2(C)C)C(=O)C(=O)NC1CC1 | -1.27
N#Cc1cccc(-c2nc(-c3cccnc3)no2)c1 | -5.61
C=CCN1CCc2cc(O)c(O)cc2C(c2ccccc2)C1 (centres unmarked) | -1.01
O=C(NCCCCCCNC(=O)ON=C1CCCCC1)ON=C1CCCCC1 | -6.95
CC(C)[C@H](O)C(=O)N[C@@H](C)C(=O)N[C@@H]1C(=O)N(C)CCc2ccccc21 | -2.24
CN(C)CCC(c1ccc(Cl)cc1)c1ccccn1 (centres unmarked) [R4A_0004036_001 / SPE_A04553218] | 16
O=C(O)C(=O)c1cn(Cc2ccccc2)c2ccc(-c3ccc(OC(F)(F)F)cc3)cc12 | 0.43
NS(=O)(=O)c1nn2cc(-c3ccccc3)nc2s1 | 0.23
O=C([O-])CN(CCN(CC(=O)[O-])CC(=O)O)CCN(CC(=O)[O-])CC(=O)O | 0.03

Compound | result_ITMP [%]
CN(C)CCOC(=O)C(c1ccccc1)C1(O)CCCC1 (centres unmarked) | 4.26
Nc1ccc(/N=N/c2ccccc2)c(N)n1 | -2.17
C[C@H](N[C@@H](CCc1ccccc1)C(=O)O)C(=O)N1Cc2ccccc2C[C@H]1C(=O)O | -0.05
CO/N=C(/C(=O)NC1C(=O)N2C(C(=O)O)=C(C[N+]3(C)CCCC3)CSC12)c1csc(N)n1 (centres unmarked) | -4.42
O=c1ccc2cc(O[C@@H]3O[C@H](CO)[C@@H](O)[C@H](O)[C@H]3O)c(O)cc2o1 | 0.56
O=C(Nc1ccc(CN2CCOCC2)cc1)c1ccc(-c2cccc(Cl)c2)o1 | 56.3
CN1CCC(=C2c3ccccc3CCn3c(C=O)cnc32)CC1 | -2.54
CC[N+](C)(CC)CCC[n+]1c(-c2ccccc2)c2cc(N)ccc2c2ccc(N)cc21 | -12.1
O=C(O)c1ccccc1Nc1cccc(C(F)(F)F)c1 | -2.29
NC1=NC(=O)N([C@H]2C[C@H](O)[C@@H](CO)O2)CN1 | -4.19
O=C(Nc1cccc(Br)c1)c1cccc(S(=O)(=O)N2CCCCCC2)c1 | -5.52
O=C(c1ccc(F)cc1)C1CCN(CCn2c(=S)[nH]c3ccccc3c2=O)CC1 | -1.66
O=C(O)Cn1nnc(-c2cc(N3CCC(Oc4cc(F)ccc4Br)CC3)no2)n1 | -2.15
COc1cc2nc(N3CCN(C(=O)COc4c(OC)cccc4C(C)C)CC3)nc(N)c2cc1OC | 22.6
CN1CCCCC1Cn1cc(C(=O)c2cc([N+](=O)[O-])ccc2I)c2ccccc21 (centres unmarked) | 36.4
CC(=O)Nc1ccc(S(=O)(=O)c2ccc(NC(C)=O)cc2)cc1 | -4.32
C[S+](CC[C@H](N)C(=O)[O-])C[C@H]1O[C@@H](n2cnc3c(N)ncnc32)[C@H](O)[C@@H]1O (some centres unmarked) | -7.98
c1ccc(-c2nn3c(c2-c2ccnc4cc(OCCN5CCOCC5)ccc24)CCC3)nc1 | -13.5
Clc1ccc(C(c2ccccc2Cl)C(Cl)Cl)cc1 (centres unmarked) | -2.25
NS(=O)(=O)c1ccc2c(c1)C1C=CCC1C(c1ccc(Br)cc1)N2 (centres unmarked) | -2.81
